# Assay results taken from publication PMC4336329 (PLoS ONE, 2015).
# Hit rate of the full screen: of about 310,000 compounds, about 2,200 (0.71%) showed an effect of 50% or more. Effects have a minus sign here. This is one part of the list.
# Molecular target: human ether-à-go-go-related gene (hERG) potassium channel (human, UniProt Q12809)
# Test: primary screen, population patch clamp on CHO cells stably expressing hERG
# Chain of human ether-à-go-go-related gene (hERG) potassium channel (Q12809 whole entry, looked up): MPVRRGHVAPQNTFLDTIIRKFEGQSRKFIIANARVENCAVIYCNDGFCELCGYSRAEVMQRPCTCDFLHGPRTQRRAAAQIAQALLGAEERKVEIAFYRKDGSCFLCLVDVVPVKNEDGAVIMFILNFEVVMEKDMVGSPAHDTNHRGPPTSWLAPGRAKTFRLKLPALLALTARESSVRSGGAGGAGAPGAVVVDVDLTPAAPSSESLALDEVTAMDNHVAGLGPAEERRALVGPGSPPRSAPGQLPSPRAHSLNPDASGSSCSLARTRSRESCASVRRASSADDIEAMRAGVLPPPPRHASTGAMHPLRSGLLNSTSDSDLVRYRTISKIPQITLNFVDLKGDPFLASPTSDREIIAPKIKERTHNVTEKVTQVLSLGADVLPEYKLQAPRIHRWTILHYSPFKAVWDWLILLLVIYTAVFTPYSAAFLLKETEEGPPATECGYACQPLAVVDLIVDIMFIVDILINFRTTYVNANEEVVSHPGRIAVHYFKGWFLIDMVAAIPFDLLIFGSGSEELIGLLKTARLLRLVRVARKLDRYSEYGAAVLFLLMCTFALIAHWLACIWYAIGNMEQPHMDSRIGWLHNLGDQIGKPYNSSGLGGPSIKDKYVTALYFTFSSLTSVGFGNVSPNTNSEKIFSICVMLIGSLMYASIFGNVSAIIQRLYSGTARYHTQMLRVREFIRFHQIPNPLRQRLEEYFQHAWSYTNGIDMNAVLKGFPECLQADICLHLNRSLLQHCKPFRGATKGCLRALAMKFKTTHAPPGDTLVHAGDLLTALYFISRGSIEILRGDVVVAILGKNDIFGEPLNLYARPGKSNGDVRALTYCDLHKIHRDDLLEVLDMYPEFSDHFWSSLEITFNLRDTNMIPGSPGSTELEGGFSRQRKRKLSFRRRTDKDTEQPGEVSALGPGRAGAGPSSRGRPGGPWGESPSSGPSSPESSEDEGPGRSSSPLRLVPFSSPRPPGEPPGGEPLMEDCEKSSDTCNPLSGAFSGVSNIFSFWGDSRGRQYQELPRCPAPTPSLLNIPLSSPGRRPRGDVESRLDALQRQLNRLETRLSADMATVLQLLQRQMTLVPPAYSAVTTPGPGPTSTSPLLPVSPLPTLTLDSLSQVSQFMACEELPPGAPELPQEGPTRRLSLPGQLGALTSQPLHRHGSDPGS
row,SMILES,"hERG current change (%, negative = inhibition) at 1uM"
1,CCC(=O)NC(c1cc(Cl)c2cccnc2c1O)C(C)C (stereo not drawn),-2.41%
2,CC(=O)/C(=N\Nc1cccc(Cl)c1)Sc1cccc2cccnc12,-2.93%
3,COC(=O)NCC12CC3CC(C1)CC(CNC(=O)OC)(C3)C2,8.73%
4,O=C(Cn1c(=O)sc2ccccc21)N1CCOCC1,4.68%
5,CC(C)=NNc1nc2sc3c(c2c(=O)[nH]1)CC(C)(C)OC3,-12.9%
6,COc1ccc(CCNC(=O)C(=O)NCc2cccs2)cc1OC,14.2%
7,O=C(NCc1ccco1)c1ccc(Cl)s1,13.1%
8,O=S(=O)(NCc1ccco1)c1cccc(S(=O)(=O)N2CCCCC2)c1,-1.83%
9,CCc1ccccc1N(C(=O)c1snc(C(N)=O)c1N)C(C(=O)NCC1CCCO1)c1c[nH]c2ccccc12 (stereo not drawn),11.8%
10,Cc1cc(C)n2nc(C(=O)NC(C)(C)C)nc2n1,5.19%
11,O=C(NCC1CCCO1)c1coc2nc3ccccc3nc12 (stereo not drawn),-10.9%
12,C=CCNS(=O)(=O)c1ccc(OCC(=O)OCC)cc1,11.3%
13,COc1ccc(-c2noc(N3CCC(C(=O)Nc4ccccc4Cl)CC3)n2)cc1,12.7%
14,O=C(CN1C(=O)/C(=C\c2ccc(F)cc2)Oc2ccccc21)NCc1ccco1,3.83%
15,O=C(O)COc1ccc(/C=N/n2c(COc3ccccc3)nc3ccccc3c2=O)cc1,20.2%
16,O=C(NCCC1=CCCCC1)C1CCN(S(=O)(=O)N2CCOCC2)CC1,-2.77%
17,CCCn1c(NC(=O)C23CC4CC(CC(O)(C4)C2)C3)nc2ccccc21,9.1%
18,O=C(CCC(=O)Nc1ccc(Br)cc1)N/N=C/c1ccc(O)cc1,9.09%
19,O=C(COc1cc2oc(=O)cc(-c3ccccc3)c2cc1Cl)NCC1CCC(C(=O)O)CC1 (stereo not drawn),-9.56%
20,Cc1ccc(C(=O)N/N=C/c2nc3ccccc3n2C)cc1,16.2%
21,O=C(Nc1cccc(Cl)c1)NC1(C(=O)NCc2cccs2)CCCCC1,8.9%
22,Cc1ccc(NC(=O)CN(c2ccccc2)S(=O)(=O)N(C)C)cc1,5.07%
23,O=C(NC1CCCC1)c1ccc(CS(=O)(=O)Cc2ccccc2F)o1,9.65%

row,SMILES,"hERG current change (%, negative = inhibition) at 1uM"
1,COc1ccc(C(=O)NC2CCCc3ccccc32)cc1OC1CCN(C(C)=O)CC1 (stereo not drawn),3.31%
2,Fc1ccccc1Nc1nc2ccccc2o1,4.61%
3,Cc1c(NC(=O)C(C)OC(=O)c2cc(Cl)nc(Cl)c2)c(=O)n(-c2ccccc2)n1C (stereo not drawn),8.62%
4,CCN1/C(=C/c2ccc3ccccc3[n+]2CC)C=Cc2ccccc21.[Cl-],-89.5%
5,CC1CN(C(=O)CCC(=O)NC2CCN(Cc3ccccc3)CC2)c2ccccc2O1 (stereo not drawn),-1.62%
6,COC(=O)C1=C(C(=O)c2ccccc2)C(c2cccs2)n2nnnc2N1 (stereo not drawn),19.3%
7,COc1cc(/C=C/C(=O)O)ccc1OS(=O)(=O)c1c(C)c(C)cc(C)c1C,-8.13%
8,COc1cc(NC(=O)C(C)C)ccc1NC(=O)c1cc2ccccc2o1,19%
9,Cc1cc(NC(=O)c2cccc(S(=O)(=O)N(C)C)c2)n(-c2ccccn2)n1,11.3%
10,Cc1ccc(NC(=O)C2c3ccccc3Oc3ccccc32)c(C)c1,5.9%
11,CCOCCCN1CN(Cc2ccccc2)CNC1=S,17.3%
12,Cc1cc(NC(=O)COC(=O)c2c(C)noc2C)ccc1Br,10.9%
13,CCOC(=O)c1c[nH][nH]c1=O,9.83%
14,O=C(O)c1cccc(N2C(=O)c3ccc(C(=O)c4cccc([N+](=O)[O-])c4)cc3C2=O)c1,15.3%
15,c1ccc(C2=Nc3ccccc3NC(c3ccccc3)C2)cc1 (stereo not drawn),-3.13%
16,CCCc1nc2oc(C(=O)OCC)c(N)c2c2c1COC(C)(C)C2,-9.15%
17,COC(=O)c1cc2c(=O)c3ccccc3oc2nc1/C=C/N(C)C,9.48%
18,Cc1cc(Cl)ccc1OCC(=O)NCc1ccncc1,8.14%
19,CCCCn1c(N)c(N(CC(C)C)C(=O)c2cnccn2)c(=O)[nH]c1=O,14.8%
20,CC(=O)Nc1ccc(CN2CCCC(CCC(=O)NCc3ccccc3F)C2)cc1 (stereo not drawn),7.17%
21,O=C(c1cccnc1)N1CCN(S(=O)(=O)c2ccc(S(=O)(=O)N3CCCC3)cc2)CC1,10.9%
22,O=C(CSCc1ccccc1)Nc1cccc(C(=O)Nc2ccccc2C(=O)O)c1,7.78%
23,CCCOc1ccccc1/C=C1\SC(N)=NC1=O,8.45%

row,SMILES,"hERG current change (%, negative = inhibition) at 1uM"
1,Nc1ccc(C(=O)OCC(=O)Nc2ccc3c(c2)OCO3)cc1[N+](=O)[O-],-1.03%
2,CCN(CC)CC(=O)c1ccc(-c2ccccc2)cc1,-3.93%
3,O=C(Nc1nc2c(Cl)c(Cl)ccc2s1)C1CC1,8.24%
4,CCCN(CCC)S(=O)(=O)c1ccc(C(=O)OCCN2C(=O)c3cccc4c(N5CCOCC5)ccc(c34)C2=O)cc1,2.45%
5,O=C(NCCc1ccc(Cl)cc1)Nc1ccc(Cl)cc1,11.8%
6,CCOP(=O)(OCC)C(C#N)=C1SCN(c2ccccc2)CS1,8.13%
7,Cc1ccc2nc(NC(=O)C3CC3C)sc2c1 (stereo not drawn),12%
8,COc1ccccc1Cn1nnc2c(=O)[nH]c(C3CCN(C(=O)c4ccc(F)cc4)CC3)nc21,11%
9,COC(=O)c1ccc(Cn2c(CN3CCOCC3)nc3ccccc3c2=O)o1,5.22%
10,C=CCn1c(SCCOc2ccc(OC)cc2)nnc1C(NC(=O)c1ccc(OC)cc1)C(C)C (stereo not drawn),-14.2%
11,Cc1ccc(S(=O)(=O)N2CCCN(c3nc4cc(C)ccc4cc3C#N)CC2)cc1,13.9%
12,O=C1/C(=N/n2cnnc2)c2ccccc2N1Cc1ccccc1,9.42%
13,O=C(NCc1ccc2c(c1)OCO2)C1(S(=O)(=O)c2ccccc2)CC1,9.27%
14,COCCn1c(SCC(=O)NC(=O)Cc2ccccc2)nc2ccccc2c1=O,1.36%
15,Cn1nc(C(F)(F)F)c(C(=O)Nc2cccc(Cl)c2)c1Cl,2.7%
16,CC1CCN(CC(=O)Nc2ccc(S(=O)(=O)N3C(C)CCCC3C)cc2)CC1 (stereo not drawn),7.85%
17,COc1ccc(C(=O)Nc2ccc(S(=O)(=O)N3CCOCC3)cc2)cc1[N+](=O)[O-],17.5%
18,O=C(NCc1ccco1)C1CC2CCC1C2 (stereo not drawn),6.07%
19,COc1ccc(O)c(C(=O)c2cnn(C(=O)c3ccc(C)cc3)c2)c1,7.06%
20,COc1ccc(C(=O)NCC(=O)N2CCC(C)CC2)cc1OC,9.11%
21,COCCCNC(=O)/C=C/c1c(Cl)cccc1Cl,15.8%
22,Clc1ccc(CNc2nc(N3CCOCC3)nc(N3CCOCC3)n2)cc1,7.55%
23,COc1ccc(C(=O)C[n+]2cc(-c3ccc(OC)cc3)n3c2CCCC3)cc1.[Br-],11.5%

row,SMILES,"hERG current change (%, negative = inhibition) at 1uM"
1,COc1ccccc1N(CC(=O)N1CCN(c2ccccc2)CC1)S(=O)(=O)c1ccc(C)cc1,12.9%
2,CCOC(=O)C1C2c3ccccc3O[C@@]1(C)N=C1SCC(=O)N12 (stereo partly drawn),14.6%
3,Cc1ccc(-n2ncc3c2CCCC3NC(=O)CCn2ccnc2C)cc1C (stereo not drawn),14.1%
4,N#C/C(=C\c1cccc(Cl)c1)C(=O)c1ccccc1,11.6%
5,CCOC(=O)N1CCN(c2ncnc3scc(-c4ccc(Cl)cc4)c23)CC1,14.2%
6,NS(=O)(=O)c1ccc(CNc2ncnc3sccc23)cc1,14.2%
7,CC(Oc1ccc2c(c1)oc(=O)c1ccccc12)C(=O)NCCN1CCOCC1 (stereo not drawn),-6.43%
8,Cn1c(=O)c2c(nc(N/N=C/c3cccs3)n2C)n(C)c1=O,11.6%
9,O=C(CSc1nc2ccccc2[nH]1)N/N=C/c1ccco1,3.19%
10,CC1(C(=O)NC23CC4CC(CC(C4)C2)C3)CC1(Cl)Cl (stereo not drawn),2.43%
11,COc1cccc2c(N/N=C/c3ccco3)cc(C)nc12,5.01%
12,CCOc1ccccc1C(=O)NCC(=O)NCCCSc1ccccc1,6.67%
13,NNC(=O)c1nc[nH]c1C(=O)Nc1ccccc1,16.8%
14,CCN(c1ccccc1)S(=O)(=O)c1ccc(Cl)c(NC(=O)CN2CCN(C)CC2)c1,-17.4%
15,CCOc1ccccc1NC(=O)CCNC(=O)Cn1ccc2ccccc2c1=O,9.9%
16,COc1ccc(NS(=O)(=O)c2cccc3cccnc23)cc1Cl,10.4%
17,CN(c1cccnc1)c1ncnc2[nH]ncc12,12.4%
18,COc1cccc(OC)c1C(=O)NNC(=O)c1cccnc1,17.4%
19,COc1ccc(OC)c(C(=O)N2CCC(n3nccc3NC(=O)CC(C)C)CC2)c1,12.2%
20,COc1ccc(NC(=O)CCN2CCCC2)c(OC)c1,9.32%
21,Cc1cccc(NC(=O)Cn2c(=O)oc3cc(S(=O)(=O)N4CCCC4)ccc32)n1,9.06%
